± gives the uncertainty stated by the source. The sequences are guide strands of siRNAs; only the seed at positions 2 to 7 varies.
Legend:
H460 = test: cell viability relative to lipid-only control; higher = less toxic; settings: concentration: 10 nM; 96 h; Homo sapiens
Description: (§1)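 Arrayed screen of 4096 siRNA duplexes, each carrying one of all possible 6mer seeds at guide-strand positions 2-7 in a fixed neutral 19mer scaffold (constant flanks: U at position 1, then ACAUGUAAACCA, plus a 3' AA overhang). The passenger strand is 2'-O-methylated at positions 1-2 so only the guide strand loads into RISC. Duplexes were reverse-transfected at 10 nM with RNAiMAX in triplicate in 384-well plates; viability was read by CellTiter-Glo ATP content 96 h after transfection. Values are % viability normalised to lipid-only wells (HeyA8, H460, M565) or to siNT1 (3LL).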

M565 = test: as above; settings: concentration: 10 nM; 96 h; Mus musculus
Description: as §1

HeyA8 = test: as above; settings: concentration: 10 nM; 96 h; Homo sapiens
Description: as §1

3LL = test: cell viability relative to siNT1 control; HeyA8 human ovarian and H460 human lung cancer; M565 mouse liver and 3LL mouse lung cancer; siNT1 is a non-toxic control siRNA; higher = less toxic; settings: concentration: 10 nM; 96 h; Mus musculus
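For cell viability relative to lipid-only control in this document: reverse lipid transfection in 384-well plates, in triplicate, of duplexes on a non-toxic 19mer backbone with passenger strand 2′-O-methylated at positions 1 and 2, luminescence viability read-out.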
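For cell viability relative to siNT1 control in this document: Luminescence-based viability of cells reverse transfected in 384-well plates with lipid-complexed siRNAs built on a non-toxic 19mer backbone whose passenger strand carries 2′-O-methyl groups at positions 1 and 2, triplicates.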

Sequence	cell viability (H460) [%]	cell viability (M565) [%]	cell viability (HeyA8) [%]	cell viability (3LL) [%]
UGUAGCCACAUGUAAACCAAA	18.6 ± 3.1	7.36 ± 2.2	20.9 ± 2.8	3.74 ± 1.6
UCGAAAGACAUGUAAACCAAA	71.4 ± 2	63.8 ± 8.1	85.6 ± 1.1	85.9 ± 16
UCCGAGCACAUGUAAACCAAA	55.1 ± 4.4	16.7 ± 2.3	34.2 ± 3.3	51.1 ± 10
UUCCGAGACAUGUAAACCAAA	93.2 ± 13	99.5 ± 9	96.3 ± 5.3	109 ± 21
UGAAUCGACAUGUAAACCAAA	77.8 ± 25	60.8 ± 10	71.6 ± 5.3	94 ± 22
UCACGUUACAUGUAAACCAAA	28.7 ± 2.3	51.7 ± 3.1	86.7 ± 3.6	99 ± 9.5
UAGUCGUACAUGUAAACCAAA	74.1 ± 11	52.3 ± 2.8	32.2 ± 1.6	48.7 ± 5.7
UCAGGUCACAUGUAAACCAAA	43.1 ± 8	22.6 ± 9.8	28.1 ± 5.2	33.8 ± 6
UCCGGAAACAUGUAAACCAAA	77.9 ± 25	82.3 ± 18	84.3 ± 11	113 ± 18
UGCCGGGACAUGUAAACCAAA	57.9 ± 5.8	17 ± 6	35.9 ± 5.7	60.1 ± 10
UGGGGUAACAUGUAAACCAAA	29.2 ± 3.7	23.5 ± 6.3	11.7 ± 1.2	38.2 ± 5.6
UAUUGCAACAUGUAAACCAAA	71.1 ± 6.5	106 ± 13	83.4 ± 5.2	105 ± 26
UUCUGCCACAUGUAAACCAAA	22.5 ± 0.24	3.26 ± 1.4	17.6 ± 1	1.94 ± 1.2
UACAUUUACAUGUAAACCAAA	68.8 ± 4.8	70.4 ± 10	38.6 ± 2.9	92 ± 8.8
UCCCCGCACAUGUAAACCAAA	51.4 ± 4.3	41 ± 15	58.8 ± 5.2	65.7 ± 13
UUUUUAGACAUGUAAACCAAA	81.2 ± 9.4	79.9 ± 3.9	97.9 ± 9.6	104 ± 8.9
UGGAAUCACAUGUAAACCAAA	35.8 ± 4.8	14.9 ± 3.3	32.7 ± 2.9	32.5 ± 4.7
UACCGGAACAUGUAAACCAAA	64.8 ± 12	43.5 ± 6.4	73.6 ± 5.5	73 ± 11
UCGGGUGACAUGUAAACCAAA	72.9 ± 3.4	65.2 ± 2.1	58.3 ± 2.9	93.7 ± 15

Sequence	cell viability (H460) [%]	cell viability (M565) [%]	cell viability (HeyA8) [%]	cell viability (3LL) [%]
UGCUCGCACAUGUAAACCAAA	42.6 ± 4.5	52.8 ± 4.9	32.6 ± 4.2	57.3 ± 5.7
UGCAGGGACAUGUAAACCAAA	23.9 ± 2.3	33 ± 1.9	2.38 ± 0.25	13.1 ± 4.4
UAACUAGACAUGUAAACCAAA	66.3 ± 15	72.1 ± 4.9	81.4 ± 14	90.6 ± 4.8
UUUUCACACAUGUAAACCAAA	71.3 ± 14	114 ± 7	67.1 ± 6.6	98.9 ± 10
UUGUCUAACAUGUAAACCAAA	64.3 ± 6.9	98.3 ± 13	82.5 ± 5	87.9 ± 1.9
UGCUUCCACAUGUAAACCAAA	47.8 ± 4	21.2 ± 9.2	19.3 ± 2.2	57.8 ± 9
UUAGGAAACAUGUAAACCAAA	77.5 ± 6.2	87.9 ± 12	87.2 ± 6.3	86.4 ± 5.7
UCGUCCUACAUGUAAACCAAA	50.2 ± 0.58	31 ± 4.5	30.3 ± 1.8	30.5 ± 12
UUCGUGAACAUGUAAACCAAA	69.9 ± 11	97.3 ± 9.8	90.3 ± 7	95.4 ± 21
UUCCUAAACAUGUAAACCAAA	74.5 ± 9.7	110 ± 12	108 ± 12	78.8 ± 21
UUCUUGAACAUGUAAACCAAA	66.2 ± 2.9	106 ± 33	80.2 ± 4.6	80.1 ± 6.6
UCAACAUACAUGUAAACCAAA	75.9 ± 10	77.5 ± 12	83.3 ± 6.1	91.4 ± 22
UUGGUAGACAUGUAAACCAAA	45.7 ± 3.1	84.3 ± 9.1	55.6 ± 4.1	52.7 ± 5.1
UCUUUAUACAUGUAAACCAAA	72.3 ± 3.4	62.8 ± 11	81.9 ± 5.9	93 ± 12
UCUCAGUACAUGUAAACCAAA	40.4 ± 0.63	85.9 ± 13	86.9 ± 8	105 ± 16
UGUAACCACAUGUAAACCAAA	49.9 ± 1.4	9.6 ± 1.1	28.5 ± 3.2	12.9 ± 1.5
UGGGAGGACAUGUAAACCAAA	17.7 ± 0.36	27.2 ± 6.4	8.18 ± 0.81	35 ± 8.8
UUUCGGUACAUGUAAACCAAA	56.9 ± 3.5	48.9 ± 6	82.1 ± 2	91.8 ± 7.4
UCCACACACAUGUAAACCAAA	50.7 ± 11	25.3 ± 11	63.8 ± 6.9	76.7 ± 22

Sequence	cell viability (H460) [%]	cell viability (M565) [%]	cell viability (HeyA8) [%]	cell viability (3LL) [%]
UCUUGCCACAUGUAAACCAAA	19.2 ± 2.1	16.4 ± 4.5	15.8 ± 0.3	39.8 ± 9.2
UCAGGGAACAUGUAAACCAAA	49.5 ± 8.8	51.9 ± 3.1	79.3 ± 9.3	82.5 ± 19
UAUGGAGACAUGUAAACCAAA	76.2 ± 8.6	80.2 ± 22	93.2 ± 8.3	107 ± 15
UUAGUCAACAUGUAAACCAAA	75.4 ± 9.2	77.9 ± 6.3	91.6 ± 5.3	89.2 ± 1.6
UUGGCCAACAUGUAAACCAAA	74.1 ± 5.1	83.3 ± 14	100 ± 11	70.4 ± 1.5
UUGGGAGACAUGUAAACCAAA	18.3 ± 1.7	56.5 ± 21	12.3 ± 1.1	9.1 ± 0.46
UUCCACUACAUGUAAACCAAA	51.8 ± 3.5	63.3 ± 9.3	82.1 ± 3.6	79.1 ± 12
UACCGAGACAUGUAAACCAAA	90.4 ± 22	81.1 ± 15	102 ± 12	96.5 ± 11
UGAGAUGACAUGUAAACCAAA	69.6 ± 15	48.9 ± 7.3	78.1 ± 4.9	83.9 ± 12
UCCCUGUACAUGUAAACCAAA	60.9 ± 14	37.4 ± 13	51 ± 3.7	70.3 ± 15
UAGAUUGACAUGUAAACCAAA	106 ± 9.8	70.9 ± 4.4	87.9 ± 10	94.3 ± 6.8
UACGGACACAUGUAAACCAAA	49.9 ± 4.6	46.5 ± 3.9	19.7 ± 1.1	70.5 ± 14
UCUCUUCACAUGUAAACCAAA	35.2 ± 1	59.8 ± 9.8	20.9 ± 0.68	79.2 ± 15
UCUAUGGACAUGUAAACCAAA	55.3 ± 4.3	52.8 ± 6.8	87.1 ± 4.8	94.6 ± 14
UAUAGAGACAUGUAAACCAAA	74.4 ± 8.4	101 ± 14	106 ± 1.7	122 ± 16
UGCGGAUACAUGUAAACCAAA	28.6 ± 2.1	26.1 ± 5.4	17.3 ± 3	35.9 ± 3.9
UUGAUUAACAUGUAAACCAAA	89.1 ± 21	109 ± 21	90.2 ± 7.1	88 ± 11
UCCAAGUACAUGUAAACCAAA	55.6 ± 10	34.2 ± 8	51.9 ± 3.2	83.2 ± 27
UUGUAAUACAUGUAAACCAAA	76.8 ± 5.2	64.6 ± 7.3	67.9 ± 0.84	51.6 ± 1.3
